Measurements reported in the BET-seq Pho4 binding data (Le et al. 2018).
The other results are listed elsewhere or left out. Values were computed here from the reads of four pooled replicates and scatter widely.

target: T1, Pho4 (S. cerevisiae) (UniProt P07270); assay: relative binding free energy (BET-seq); higher = weaker binding; conditions: reference: library average
T1 sequence: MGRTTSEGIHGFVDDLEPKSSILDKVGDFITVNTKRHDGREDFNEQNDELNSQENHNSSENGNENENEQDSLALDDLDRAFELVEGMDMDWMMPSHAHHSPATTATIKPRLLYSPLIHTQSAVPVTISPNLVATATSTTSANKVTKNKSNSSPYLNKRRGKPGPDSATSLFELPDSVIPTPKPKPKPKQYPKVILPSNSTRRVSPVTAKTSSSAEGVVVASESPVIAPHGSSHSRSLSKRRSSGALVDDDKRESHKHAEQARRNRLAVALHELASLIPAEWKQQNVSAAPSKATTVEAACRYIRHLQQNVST

Sequence	relative binding free energy
AGAGGCACGTGAGGGT	0.12 kcal/mol
TTGGTCACGTGTGTCG	0.16 kcal/mol
GATTGCACGTGGATAT	0.08 kcal/mol
GCGAACACGTGTTGGG	0.12 kcal/mol
TAGAGCACGTGTTATA	-0.1 kcal/mol
ATAATCACGTGTTGGC	0.15 kcal/mol
GCGGACACGTGTTAGG	0.14 kcal/mol
AGGGTCACGTGCGTCA	0.09 kcal/mol
TGCTTCACGTGTTGCT	0.04 kcal/mol
TTGAGCACGTGGCCGG	-0.19 kcal/mol
TCGTTCACGTGTTCTT	0.28 kcal/mol
TACGTCACGTGGGTGG	-0.17 kcal/mol
GGTATCACGTGGTGGT	0.12 kcal/mol
TAGGTCACGTGGCAAT	0.11 kcal/mol
GAGTGCACGTGCGGGA	0.02 kcal/mol
TTTTCCACGTGTTTTG	0.18 kcal/mol
GAGGGCACGTGACAGG	-0.01 kcal/mol
CAGGGCACGTGAGGTG	0.13 kcal/mol
TGAGTCACGTGGTACG	0.04 kcal/mol
CGGGTCACGTGCATGG	-0.01 kcal/mol
GGGGCCACGTGATGGC	0.1 kcal/mol
TTTCTCACGTGTGGTA	0.24 kcal/mol
GACGGCACGTGAGTTT	0.38 kcal/mol
GTATACACGTGGAGGG	0.1 kcal/mol
TAAGTCACGTGTGGTA	0.15 kcal/mol

Sequence	relative binding free energy
CTGTTCACGTGCGTTT	0.1 kcal/mol
GTCTGCACGTGGTCGG	0 kcal/mol
TGTCTCACGTGAGTGG	0.37 kcal/mol
ACTATCACGTGGGGAT	0 kcal/mol
ACTGGCACGTGGAGGG	-0.25 kcal/mol
ATATTCACGTGCGGTT	0.24 kcal/mol
AGGGGCACGTGCATGA	-0.13 kcal/mol
GCAGTCACGTGTTGTA	0.07 kcal/mol
ATAATCACGTGGATTA	0.29 kcal/mol
TTCAGCACGTGAATGG	0.29 kcal/mol
TCTTTCACGTGTGAGG	0.2 kcal/mol
AGTGACACGTGTGAGG	-0.03 kcal/mol
CTTTTCACGTGAAGTT	0.29 kcal/mol
AATGGCACGTGATGGC	-0.07 kcal/mol
TCGGACACGTGGGTCG	-0.06 kcal/mol
AATATCACGTGTTTGG	0.1 kcal/mol
CTTGGCACGTGGGATT	-0.17 kcal/mol
ATTCTCACGTGGTTTA	0.19 kcal/mol
AGTATCACGTGTGATA	0.21 kcal/mol
ATTTTCACGTGTTTCA	0.05 kcal/mol
GTGTGCACGTGTTAAA	0.02 kcal/mol
TTAGTCACGTGCCAGG	0.06 kcal/mol
CATGGCACGTGGGATG	-0.32 kcal/mol
TAGAGCACGTGGTCAG	-0.25 kcal/mol
GGGAACACGTGATGGG	0.2 kcal/mol

Sequence	relative binding free energy
GGTACCACGTGTATTT	0.03 kcal/mol
AGTCTCACGTGTTTTT	0.17 kcal/mol
GTTGGCACGTGTTATG	-0.03 kcal/mol
TTAGTCACGTGTTAAT	0.17 kcal/mol
GTGCTCACGTGTTATG	0.26 kcal/mol
TATGACACGTGGGTGG	-0.05 kcal/mol
TGGGGCACGTGGGTGT	-0.2 kcal/mol
GGGTACACGTGTTTTA	0.17 kcal/mol
TAATGCACGTGTGGAA	0.07 kcal/mol
AAAGGCACGTGGTCAG	-0.24 kcal/mol
TCGGTCACGTGGGGAA	0.03 kcal/mol
AGGACCACGTGATGGT	0.06 kcal/mol
GTGTACACGTGTTGTT	0.07 kcal/mol
CGTGACACGTGTAGTG	-0.09 kcal/mol
TTTAACACGTGAATGA	0.24 kcal/mol
TTGAGCACGTGAAAGG	0.28 kcal/mol
AGGTTCACGTGAGTAG	0.39 kcal/mol
TGTATCACGTGTTTGG	0.09 kcal/mol
TGGTGCACGTGATCTG	0.04 kcal/mol
TTAAACACGTGGTTAG	-0.05 kcal/mol
TCGGGCACGTGCTTTT	-0.18 kcal/mol
GTGTTCACGTGGATGC	0.24 kcal/mol
GGATGCACGTGAGTTT	0.35 kcal/mol
GTAGGCACGTGGAGGG	-0.1 kcal/mol
TTTTGCACGTGAAGCT	0.09 kcal/mol

Sequence	relative binding free energy
AACATCACGTGTTTGT	0.08 kcal/mol
CTAGACACGTGGGGAG	-0.17 kcal/mol
TCAAGCACGTGGAGTT	0.09 kcal/mol
TAAATCACGTGAGGGA	0.37 kcal/mol
GGGGACACGTGTAGCG	0.03 kcal/mol
GGTGGCACGTGACGCA	0.01 kcal/mol
TCATGCACGTGAGTGG	0.12 kcal/mol
AAGGGCACGTGTAGTG	-0.02 kcal/mol
GCAGTCACGTGGGATT	0.03 kcal/mol
TACTGCACGTGGTGCG	-0.18 kcal/mol
GTTGTCACGTGTGATT	0.2 kcal/mol
TATTGCACGTGTGATC	0.15 kcal/mol
TATGTCACGTGTTTGG	0.18 kcal/mol
TCTTTCACGTGATGTA	0.3 kcal/mol
TTTACCACGTGTTAGT	-0.08 kcal/mol
GCGGTCACGTGGTAAT	0.15 kcal/mol
TGATACACGTGGAGTA	0.05 kcal/mol
TAGATCACGTGGTCTG	-0.06 kcal/mol
AAATTCACGTGTGTTT	0.31 kcal/mol
TTGTACACGTGCGGGC	0.08 kcal/mol
AGTAACACGTGAGGGT	0.25 kcal/mol
TGCGTCACGTGTAAGG	0.12 kcal/mol
CGGTTCACGTGTAGTT	0.22 kcal/mol
CGGTCCACGTGGGGTT	-0.08 kcal/mol
AGAATCACGTGAGTTG	0.37 kcal/mol

Sequence	relative binding free energy
ATCGTCACGTGTGTTG	0.09 kcal/mol
AGATACACGTGAGTTT	0.34 kcal/mol
TCTTTCACGTGTAGTT	0.28 kcal/mol
GGCTGCACGTGTAGGC	0.09 kcal/mol
AGTAACACGTGTTAGT	0.01 kcal/mol
CAAGGCACGTGGGTAG	-0.27 kcal/mol
ACTTGCACGTGTTAGG	0.12 kcal/mol
GAGTTCACGTGGTGGA	0.26 kcal/mol
TCGGACACGTGTGGCG	-0.01 kcal/mol
TCGGACACGTGGTTAG	0.14 kcal/mol
TAGAACACGTGTGTAT	0.1 kcal/mol
TGGTTCACGTGAGGTG	0.35 kcal/mol
AGTTGCACGTGTGACT	0.03 kcal/mol
TCGGCCACGTGGGGGC	-0.05 kcal/mol
TCGTGCACGTGCTTTT	-0.03 kcal/mol
GTAAGCACGTGGGCCG	-0.09 kcal/mol
GGAAACACGTGTGTTG	0.1 kcal/mol
CGTAACACGTGGAGGG	-0.08 kcal/mol
GAGGTCACGTGATGAG	0.35 kcal/mol
ATGTTCACGTGAATAG	0.28 kcal/mol
TAAGTCACGTGATTGG	0.26 kcal/mol
CGTTGCACGTGAGTAG	0.27 kcal/mol
GTGGGCACGTGGGATC	-0.11 kcal/mol
TGGGGCACGTGCTTGC	-0.27 kcal/mol
GTATACACGTGTGGTG	0.01 kcal/mol

Sequence	relative binding free energy
GGATTCACGTGGCGTG	0.29 kcal/mol
TTGGGCACGTGTTGCT	-0.01 kcal/mol
TTCGGCACGTGGCTTG	-0.18 kcal/mol
TTTTTCACGTGGGCGT	0.15 kcal/mol
TGTGACACGTGATGCG	-0.14 kcal/mol
GTTTACACGTGCGGTT	0.11 kcal/mol
GTCTGCACGTGTGAGA	0.09 kcal/mol
GTAGACACGTGGTCGG	-0.05 kcal/mol
TAGGGCACGTGTCGTG	-0.13 kcal/mol
AGTGGCACGTGTGGTG	0.02 kcal/mol
GTTGGCACGTGTGTCT	-0.07 kcal/mol
GTGTGCACGTGTGGCA	0.04 kcal/mol
TGTTGCACGTGAGGTG	0.19 kcal/mol
TAGGACACGTGAATGT	0.18 kcal/mol
CGTGACACGTGAAGGT	0.2 kcal/mol
ATGTACACGTGAATAG	0.24 kcal/mol
GGTGTCACGTGGCCGT	0.07 kcal/mol
CTATGCACGTGATGTT	0.14 kcal/mol
TGTTCCACGTGGTGCA	-0.01 kcal/mol
ATGGGCACGTGGGTGT	-0.22 kcal/mol
TTATTCACGTGTTAAT	0.28 kcal/mol
